Data published in PubChem BioAssay AID1454 (National Center for Advancing Translational Sciences (NCATS), 2008).
Hit rate of the full screen: of about 130,000 compounds, about 550 (0.42%) were called active. Inconclusive results, whose numbers are uncertain, are shown with a selection of clear calls. Calls follow the shape of the dose curve; as a rule, active = well fitted inhibition curve with a large enough effect; inconclusive = small, poorly fitted or top-dose-only effect, or effect the other way; inactive = flat fitted curve, though single readings scatter. Potencies of inconclusive entries are left out as doubtful fits.

Assay: qHTS Assay for Inhibitors of the ERK Signaling Pathway using a Homogeneous Screening Assay; Stimulation with EGF; also: nearly all actives have a fitted effect of over 55% in size
Settings: HEK293-V1b, EGF-stimulated phospho-ERK AlphaScreen
Outline: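 Readout: AlphaScreen signal for phosphorylated ERK in lysed HEK293 cells stably expressing V1b. Stimulus 25 nM EGF, 5 min, following 30 min compound exposure. Data scaled to DMSO basal and full EGF activation.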
Potency is read from the fitted curve at half-maximal effect; tags tell the direction and shape of the fitted curve.

SMILES | Potency
CC(C)N1CCN(Cc2cccn2-c2nccs2)CC1CCO (stereo not drawn) | inconclusive [inhibitor, partial curve, poor fit]
O=C1N/C(=C/c2ccc(N3CCOCC3)o2)C(=O)N1c1cccc(Cl)c1 | inconclusive [inhibitor, single point]
O=[N+]([O-])c1ccccc1-c1ccc(C(=S)N2CCCCC2)o1 | inconclusive [inhibitor, single point]
COc1ccc(CNc2nc(-c3ccccc3)nn2C(=O)c2ccc([N+](=O)[O-])cc2)cc1 | inconclusive [inhibitor, partial curve, poor fit]
O=[N+]([O-])c1ccccc1-c1cc(-c2cc(Cl)ccc2O)n[nH]1 | inconclusive [inhibitor, single point]
CCOc1ccccc1CNCc1ccc(F)cc1 | inconclusive [inhibitor, partial curve, poor fit]
O=C(NC(=S)N1CCN(c2nc(-c3ccccc3)cs2)CC1)c1cncc(Br)c1 | inconclusive [inhibitor, single point]
CN(C)S(=O)(=O)c1ccc(Cl)c(NC(=O)COC(=O)c2ccc(O)cc2)c1 | inconclusive [inhibitor, partial curve, poor fit]
COc1ccc(/C=C2\CC/C(=C\c3ccc(OC)c(OC)c3)C2=O)cc1OC | inconclusive [inhibitor, partial curve]
CC(C)=CCCC1(C)C=Cc2c(ccc3c2[nH]c2cc(O)c(C)cc23)O1 (stereo not drawn) | inconclusive [inhibitor, partial curve]
COc1ccccc1/C=C/C(=O)OCc1nc2ccccc2c(=O)[nH]1 | inconclusive [activator, partial curve]
O=C(Oc1ccccc1)N1CCC2(CC1)CCN(c1ccccc1)CC2 | inactive
O=[N+]([O-])c1cc(/C=N/N2CCCCC2)ccc1Cl | inconclusive [inhibitor, single point]
OC[C@H]1NC[C@@H](O)[C@@H](O)[C@H]1O | inactive
Nc1nc(Nc2ccc(Cl)cc2)nc(NCc2ccco2)c1[N+](=O)[O-] | inconclusive [inhibitor, single point]
CCCCCCCCOC(=O)c1c(CSC(=N)N)n(C)c2cc(Br)c(OC(C)=O)cc12 | inconclusive [inhibitor, single point]
Cc1cc(C(F)(F)F)n2nc(-c3cccs3)cc2n1 | inactive
S=C(N=Nc1ccccc1)NNc1ccccc1 | inconclusive [inhibitor, partial curve]
Cc1ccc(OCCOCCN2CCCCC2)c([N+](=O)[O-])c1 | inactive
COc1ccc(NC(=O)COC(=O)CCNS(=O)(=O)c2ccccc2)cc1OC | inconclusive [inhibitor, single point]
COc1ccc2nc(N=NC3=C(O)CC(C)(C)CC3=O)sc2c1 | inactive
O=C1CCC=C1C(O)c1ccccc1 (stereo not drawn) | inactive
Cc1noc(C)c1C(=O)N1CCC[C@@]2(CCN(C(=O)Nc3ccccc3)C2)C1 | inactive

SMILES | Potency
CCCCCCOC(=O)Nc1ccc(S(=O)(=O)Nc2cccc([N+](=O)[O-])c2)cc1 | inconclusive [inhibitor, single point]
CCOC(=O)C(C)Sc1nc(=O)n2cc(C)ccc2n1 (stereo not drawn) | inconclusive [inhibitor, single point]
CCOc1ccc(C2C(C(=O)c3ccc(C)o3)=C(O)C(=O)N2CCCN(CC)CC)cc1 (stereo not drawn) | inactive
CCOc1ccc(-c2nc(N)ncc2-c2ccccc2OC)c(O)c1 | inactive
O=[N+]([O-])c1cccc(/C=N/Nc2nc(NCc3ccccc3)nc(N3CCOCC3)n2)c1O | inconclusive [inhibitor, single point]
CN=c1scc(-c2ccccc2F)n1/N=C(\C)c1cccnc1 | inconclusive [inhibitor, single point]
O=C(CCCN1C(=O)/C(=C/c2ccco2)SC1=S)Nc1ccccc1 | inconclusive [inhibitor, single point]
N#Cc1ccc(NC(=O)Nc2ccc(Oc3ccc(NC(=O)Nc4ccc(C#N)cc4)cc3)cc2)cc1 | active: 31.6 µM
COc1ccc(-c2cc(=O)c3c(OC)c(OC)c(OC)c(OC)c3o2)cc1OC | inconclusive [inhibitor, partial curve]
CCOc1ccc(-n2c(SCc3ccc([N+](=O)[O-])cc3)nnc2-c2ccccc2)cc1 | inactive
Cc1nc2c(c3c1[nH]c1ccccc13)C(=O)CC(C)(C)C2 | inconclusive [activator, partial curve]
O=C(Nc1ccc(S(=O)(=O)N2CCCCC2)cc1)c1ccc(CN2CCOCC2)cc1 | inconclusive [inhibitor, partial curve]
S=c1[nH]c(-c2ccccc2)cn1/N=C/c1cccnc1 | inconclusive [inhibitor, full curve]
COc1cc2cnncc2cc1OC | inactive
CCOc1ccc(NS(=O)(=O)c2ccc(C)c(C(=O)NCCCn3ccnc3)c2)cc1 | inconclusive [inhibitor, single point]
COc1ccccc1C1CCN(c2ccc([N+](=O)[O-])cn2)CC1 | inconclusive [inhibitor, single point]
CC(C)S(=O)(=O)c1csc(NC(=O)Nc2cccc([N+](=O)[O-])c2)c1Cl | inconclusive [inhibitor, single point]
Cc1nc2c(c(C)nn2-c2ccccc2)c(C)c1CCC(=O)Nc1ccc(CN2CCCC2)cc1 | inconclusive [inhibitor, single point]
C/C(=N\Nc1ccc(Cl)c(C(=O)O)c1)c1ccccn1 | inactive
COc1ccc(Br)cc1CNc1ccc2[nH]c(=O)[nH]c2c1 | inconclusive [inhibitor, partial curve]
CCOc1ccc(N/C(C)=C\C(=O)c2ccc3c(c2)OCCO3)cc1 | inconclusive [inhibitor, single point]
O=C(NC1=NCCS1)c1cc(-c2ccc(F)cc2)nc2ccccc12 | inactive
NCCC[C@@H](CC(=O)N[C@@H]1CCCC[C@H]1C(=O)N[C@H](CC(=O)N[C@@H](CCC(=O)O)CC(=O)O)Cc1ccccc1)NC(=O)C[C@H](CO)NC(=O)[C@@H]1CNCC[C@H]1N | inactive

SMILES | Potency
COCCCN1C(=O)/C(=C\c2cccs2)C(C(=O)OC)=C1C | inconclusive [inhibitor, full curve, poor fit]
Cc1ccc(NS(=O)(=O)c2ccc(NC(=O)c3cccs3)cc2)c(C)c1 | inconclusive [inhibitor, single point]
CN1Cc2c(N3CCOCC3)nc3sc(C(=O)c4ccc(Br)cc4)c(N)c3c2CC1(C)C | active: 35.5 µM
Cc1cccc(C)c1OCC(O)CN1CCN(c2ccccc2)CC1 (stereo not drawn) | inconclusive [inhibitor, partial curve]
CCOC(=O)[C@H]1NN=C(C(=O)OC)[C@@H]1c1ccccc1 | inconclusive [activator, full curve, poor fit]
Cn1nnc(NC(=O)c2ccccc2)n1 | inactive
CCCS(=O)(=O)N1CCCC(C(=O)NCC(OC)OC)C1 (stereo not drawn) | inconclusive [activator, full curve, poor fit]
COC(=O)c1cc(NS(=O)(=O)c2cccc(Cl)c2)ccc1N1CCOCC1 | inconclusive [activator, partial curve, poor fit]
CN1CCC2(CC1)CCN(C(=O)c1cc(C(F)(F)F)cc(C(F)(F)F)c1)CC2 | inactive
Cc1cc(C(=O)CSc2cccc[n+]2[O-])c(C)n1-c1ccc(Br)cc1 | inconclusive [inhibitor, partial curve]
Cc1cc(=O)n(CC(C)O)c(O)c1C#N (stereo not drawn) | inconclusive [inhibitor, single point]
Cc1[nH]c(C)c(Cl)c(=O)c1Cl | inactive
CCSc1oc(-c2cccs2)nc1S(=O)(=O)c1ccccc1 | inactive
COC(=O)CN1C(=S)N(Cc2ccccc2)C(=O)C1CC(=O)Nc1ccc(OC)cc1 (stereo not drawn) | inconclusive [activator, full curve, poor fit]
N#Cc1sc2nc(-c3cccs3)cc(-c3ccc(F)cc3)c2c1N | inconclusive [activator, partial curve]
COC(=O)CCn1c(C)cc(C(=O)COc2ccccc2C(N)=O)c1C | inconclusive [inhibitor, partial curve]
CC(C)(C)NC(=O)NC(=O)COC(=O)Cc1c(Cl)cccc1Cl | inconclusive [inhibitor, single point]
Cc1cc2cc(C)c(NCCNC(=O)c3ccccc3Cl)nc2cc1C | inconclusive [inhibitor, single point]
O=C(COC(=O)c1ccc2c(c1[N+](=O)[O-])C(=O)c1ccccc1C2=O)NC1CC1 | inconclusive [inhibitor, partial curve]
CC12CCC(C(=O)N3CCCCC3)([C@H](Br)C1=O)C2(C)C (stereo partly drawn) | inconclusive [activator, partial curve]
Cc1ccc(N(NC(=O)C(O)(c2ccccc2)c2ccccc2)C(=O)CCl)cc1 | inactive
CCN(CC)c1ccc2c(C)c(Cl)c(=O)oc2c1 | inactive
